Results are given in words; binding and its absence hold for the method and conditions named. In cells and extracts the contact can be indirect. Some binding calls cover weakened binding; strength is not graded here.
T1: FOP, endogenous in RPE-1 cells (human (endogenous in RPE-1)) (UniProt O95684)
T1 sequence: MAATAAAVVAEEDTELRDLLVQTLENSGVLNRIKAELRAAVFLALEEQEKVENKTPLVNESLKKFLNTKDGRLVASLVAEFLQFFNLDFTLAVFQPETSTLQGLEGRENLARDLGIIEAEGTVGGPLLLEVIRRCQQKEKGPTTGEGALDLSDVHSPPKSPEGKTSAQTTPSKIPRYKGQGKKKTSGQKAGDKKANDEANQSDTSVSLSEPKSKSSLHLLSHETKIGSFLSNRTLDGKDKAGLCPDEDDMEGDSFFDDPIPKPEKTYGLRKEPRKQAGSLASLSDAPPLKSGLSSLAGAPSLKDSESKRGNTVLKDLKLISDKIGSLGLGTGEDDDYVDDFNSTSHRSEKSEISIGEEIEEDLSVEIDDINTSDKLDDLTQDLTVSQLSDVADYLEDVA

Chains of the proteins cited; added tags and fusions are not shown.
UniProt Q5VT06: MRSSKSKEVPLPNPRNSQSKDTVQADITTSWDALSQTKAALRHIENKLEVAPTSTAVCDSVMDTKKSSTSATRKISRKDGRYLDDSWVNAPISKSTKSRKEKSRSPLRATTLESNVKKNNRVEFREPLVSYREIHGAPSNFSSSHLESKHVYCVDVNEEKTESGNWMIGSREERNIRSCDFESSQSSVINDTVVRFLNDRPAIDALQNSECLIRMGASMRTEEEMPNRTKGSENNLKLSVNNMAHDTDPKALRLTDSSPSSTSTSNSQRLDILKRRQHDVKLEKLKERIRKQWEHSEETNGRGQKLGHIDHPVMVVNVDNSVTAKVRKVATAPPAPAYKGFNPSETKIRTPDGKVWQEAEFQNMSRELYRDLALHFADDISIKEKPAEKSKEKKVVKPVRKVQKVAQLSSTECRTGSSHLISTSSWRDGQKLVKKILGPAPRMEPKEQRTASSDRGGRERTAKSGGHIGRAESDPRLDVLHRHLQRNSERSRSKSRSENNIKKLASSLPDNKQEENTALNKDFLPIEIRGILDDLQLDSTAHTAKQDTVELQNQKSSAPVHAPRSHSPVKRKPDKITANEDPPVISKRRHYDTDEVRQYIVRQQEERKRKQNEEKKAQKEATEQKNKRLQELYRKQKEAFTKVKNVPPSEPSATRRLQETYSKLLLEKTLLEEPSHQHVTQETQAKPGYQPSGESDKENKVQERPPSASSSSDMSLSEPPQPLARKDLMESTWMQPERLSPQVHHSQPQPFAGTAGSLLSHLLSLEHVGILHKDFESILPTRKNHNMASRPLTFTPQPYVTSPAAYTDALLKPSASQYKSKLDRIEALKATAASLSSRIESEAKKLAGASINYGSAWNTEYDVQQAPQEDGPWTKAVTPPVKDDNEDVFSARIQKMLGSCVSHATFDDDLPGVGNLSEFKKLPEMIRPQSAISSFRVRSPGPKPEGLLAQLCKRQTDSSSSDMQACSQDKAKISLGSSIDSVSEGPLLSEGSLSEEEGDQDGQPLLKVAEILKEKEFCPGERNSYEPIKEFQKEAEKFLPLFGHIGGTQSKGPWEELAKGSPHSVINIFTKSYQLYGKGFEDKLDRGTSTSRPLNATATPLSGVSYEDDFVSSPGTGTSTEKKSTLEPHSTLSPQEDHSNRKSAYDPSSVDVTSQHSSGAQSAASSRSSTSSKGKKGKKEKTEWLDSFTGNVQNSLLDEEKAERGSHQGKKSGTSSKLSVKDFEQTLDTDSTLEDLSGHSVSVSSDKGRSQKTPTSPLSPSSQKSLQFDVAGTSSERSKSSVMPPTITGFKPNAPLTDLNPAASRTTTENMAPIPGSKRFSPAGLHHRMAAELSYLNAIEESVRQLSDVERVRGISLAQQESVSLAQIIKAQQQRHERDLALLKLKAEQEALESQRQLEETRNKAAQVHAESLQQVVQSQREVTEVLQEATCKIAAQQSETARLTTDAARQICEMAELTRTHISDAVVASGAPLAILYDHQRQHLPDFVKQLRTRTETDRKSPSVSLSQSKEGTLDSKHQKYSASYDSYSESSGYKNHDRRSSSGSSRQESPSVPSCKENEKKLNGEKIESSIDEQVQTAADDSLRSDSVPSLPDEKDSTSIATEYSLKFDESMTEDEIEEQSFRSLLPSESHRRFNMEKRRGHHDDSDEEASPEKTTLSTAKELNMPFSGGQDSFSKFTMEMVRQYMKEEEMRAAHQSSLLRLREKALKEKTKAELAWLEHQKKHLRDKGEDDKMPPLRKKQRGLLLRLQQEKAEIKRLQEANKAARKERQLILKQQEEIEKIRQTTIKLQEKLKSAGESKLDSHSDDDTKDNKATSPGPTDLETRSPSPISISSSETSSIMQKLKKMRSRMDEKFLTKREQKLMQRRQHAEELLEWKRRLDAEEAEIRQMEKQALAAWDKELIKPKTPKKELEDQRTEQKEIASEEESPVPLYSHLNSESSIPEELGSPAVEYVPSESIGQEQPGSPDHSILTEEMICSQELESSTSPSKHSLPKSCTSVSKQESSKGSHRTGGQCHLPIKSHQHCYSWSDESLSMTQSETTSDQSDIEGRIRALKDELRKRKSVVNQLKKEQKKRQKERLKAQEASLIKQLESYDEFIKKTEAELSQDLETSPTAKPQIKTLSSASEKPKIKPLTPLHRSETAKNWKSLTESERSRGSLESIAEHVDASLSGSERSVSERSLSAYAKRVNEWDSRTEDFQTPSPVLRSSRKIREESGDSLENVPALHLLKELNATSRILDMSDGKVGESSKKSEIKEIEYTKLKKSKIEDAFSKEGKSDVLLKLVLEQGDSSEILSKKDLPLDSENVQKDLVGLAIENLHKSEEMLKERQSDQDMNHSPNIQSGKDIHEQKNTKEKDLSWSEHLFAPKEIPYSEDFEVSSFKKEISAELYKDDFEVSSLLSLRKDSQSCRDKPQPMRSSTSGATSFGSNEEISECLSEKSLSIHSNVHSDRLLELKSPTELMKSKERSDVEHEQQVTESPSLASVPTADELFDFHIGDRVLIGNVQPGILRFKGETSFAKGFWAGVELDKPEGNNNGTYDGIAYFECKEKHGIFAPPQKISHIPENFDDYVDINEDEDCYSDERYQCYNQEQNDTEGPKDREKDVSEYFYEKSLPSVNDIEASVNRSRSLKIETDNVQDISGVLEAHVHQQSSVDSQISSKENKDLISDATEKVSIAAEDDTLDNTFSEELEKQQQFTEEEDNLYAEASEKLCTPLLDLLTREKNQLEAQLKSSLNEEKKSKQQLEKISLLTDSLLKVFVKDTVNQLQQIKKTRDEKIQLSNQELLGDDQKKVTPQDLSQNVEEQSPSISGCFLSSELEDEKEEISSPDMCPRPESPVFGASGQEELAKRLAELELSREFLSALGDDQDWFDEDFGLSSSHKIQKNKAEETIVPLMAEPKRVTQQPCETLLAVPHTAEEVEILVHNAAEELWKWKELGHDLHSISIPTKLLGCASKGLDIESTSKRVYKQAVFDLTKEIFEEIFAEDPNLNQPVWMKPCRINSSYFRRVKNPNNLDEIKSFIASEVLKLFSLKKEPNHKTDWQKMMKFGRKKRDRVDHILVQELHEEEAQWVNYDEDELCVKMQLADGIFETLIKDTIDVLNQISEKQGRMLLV
UniProt Q9BTV5: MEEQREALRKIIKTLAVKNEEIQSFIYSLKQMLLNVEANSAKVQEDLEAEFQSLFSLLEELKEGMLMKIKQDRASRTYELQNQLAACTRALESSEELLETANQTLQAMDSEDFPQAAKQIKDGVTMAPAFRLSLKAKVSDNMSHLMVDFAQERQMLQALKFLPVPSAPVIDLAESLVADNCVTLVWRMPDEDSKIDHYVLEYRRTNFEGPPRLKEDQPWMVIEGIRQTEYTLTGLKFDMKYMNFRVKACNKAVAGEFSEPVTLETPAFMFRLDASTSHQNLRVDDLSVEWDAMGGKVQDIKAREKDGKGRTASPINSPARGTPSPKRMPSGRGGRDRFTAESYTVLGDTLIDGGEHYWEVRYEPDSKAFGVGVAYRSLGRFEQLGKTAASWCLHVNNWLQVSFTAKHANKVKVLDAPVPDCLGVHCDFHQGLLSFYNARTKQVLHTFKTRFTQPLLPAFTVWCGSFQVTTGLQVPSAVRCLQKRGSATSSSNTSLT


Legend:
[1] = target: CAP350, endogenous in RPE-1 cells (human (endogenous in RPE-1)) (UniProt Q5VT06); test: co-IP; endogenous proteins, RPE-1 cells lysed in ELB buffer (50 mM HEPES pH 7.0, 250 mM NaCl, 5 mM EDTA, 0.1% NP-40, 10% glycerol); immunoprecipitated with anti-FSD1, anti-CAP350, anti-FOP or control IgG at 4 °C overnight; immunoblot
[2] = target: T1, FOP, endogenous in RPE-1 cells (human (endogenous in RPE-1)); test: as above
[3] = target: Flag-FSD1 (UniProt Q9BTV5); test: co-IP; Flag-FSD1 transfected into HEK293T cells, harvested 24 h after transfection; Flag M2 beads with cell extract at 4 °C for 2 h; immunoblot of endogenous proteins
[4] = target: FSD1 (fibronectin type III and SPRY domain containing 1), endogenous (human (endogenous in RPE-1)) (UniProt Q9BTV5); test: co-IP; endogenous proteins, RPE-1 cells lysed in ELB buffer (50 mM HEPES pH 7.0, 250 mM NaCl, 5 mM EDTA, 0.1% NP-40, 10% glycerol); immunoprecipitated with anti-FSD1, anti-CAP350, anti-FOP or control IgG at 4 °C overnight; immunoblot

| Molecule | binding [3] | binding [4] | other results |
| --- | --- | --- | --- |
| FSD1 (fibronectin type III and SPRY domain containing 1), endogenous (from UniProt Q9BTV5 1-496) |  |  | binding [1]: binds; binding [2]: binds |
| CAP350, endogenous in RPE-1 cells (from UniProt Q5VT06 1-3117) |  | binds |  |
| FOP, endogenous in HEK293T cells (protein, UniProt O95684 1-399) MAATAAAVVAEEDTELRDLLVQTLENSGVLNRIKAELRAAVFLALEEQEKVENKTPLVNESLKKFLNTKDGRLVASLVAEFLQFFNLDFTLAVFQPETSTLQGLEGRENLARDLGIIEAEGTVGGPLLLEVIRRCQQKEKGPTTGEGALDLSDVHSPPKSPEGKTSAQTTPSKIPRYKGQGKKKTSGQKAGDKKANDEANQSDTSVSLSEPKSKSSLHLLSHETKIGSFLSNRTLDGKDKAGLCPDEDDMEGDSFFDDPIPKPEKTYGLRKEPRKQAGSLASLSDAPPLKSGLSSLAGAPSLKDSESKRGNTVLKDLKLISDKIGSLGLGTGEDDDYVDDFNSTSHRSEKSEISIGEEIEEDLSVEIDDINTSDKLDDLTQDLTVSQLSDVADYLEDVA | binds |  |  |
| CEP19, endogenous in HEK293T cells (protein, UniProt Q96LK0 1-163) MMCTAKKCGIRFQPPAIILIYESEIKGKIRQRIMPVRNFSKFSDCTRAAEQLKNNPRHKSYLEQVSLRQLEKLFSFLRGYLSGQSLAETMEQIQRETTIDPEEDLNKLDDKELAKRKSIMDELFEKNQKKKDDPNFVYDIEVEFPQDDQLQSCGWDTESADEF | no binding |  |  |

Continued, in another order:

| binding [3] | binding [4] | Molecule | other results |
| --- | --- | --- | --- |
| binds |  | CAP350, endogenous in HEK293T cells (from UniProt Q5VT06 1-3117) |  |
|  | binds | FOP, endogenous in RPE-1 cells (protein, UniProt O95684 1-399) MAATAAAVVAEEDTELRDLLVQTLENSGVLNRIKAELRAAVFLALEEQEKVENKTPLVNESLKKFLNTKDGRLVASLVAEFLQFFNLDFTLAVFQPETSTLQGLEGRENLARDLGIIEAEGTVGGPLLLEVIRRCQQKEKGPTTGEGALDLSDVHSPPKSPEGKTSAQTTPSKIPRYKGQGKKKTSGQKAGDKKANDEANQSDTSVSLSEPKSKSSLHLLSHETKIGSFLSNRTLDGKDKAGLCPDEDDMEGDSFFDDPIPKPEKTYGLRKEPRKQAGSLASLSDAPPLKSGLSSLAGAPSLKDSESKRGNTVLKDLKLISDKIGSLGLGTGEDDDYVDDFNSTSHRSEKSEISIGEEIEEDLSVEIDDINTSDKLDDLTQDLTVSQLSDVADYLEDVA |  |

From publication PMC6290075
